# Reference: the supplement of paper PMC10338343
# ± gives the standard deviation. The list shows a part of the results, in another mix than the full data.
# System: MIWI (PIWIL1) piRISC loaded with piRNA #1 (30 nt)
# Test: pre-steady-state target cleavage rate (min^-1); MIWI and MILI are mouse PIWI proteins and EfPiwi is from a freshwater sponge; tags in brackets are library labels; higher = faster piRNA-guided slicing of the target
# Conditions: guide: piRNA #1 5'p-UGAGGUAGUAGGUUGUAUAGUAUCCAGAGG; auxiliary factor: 500 nM mouse GTSF1
# How it was run: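 Cleave-'n-Seq measured uncleaved targets by sequencing after a transcribed, DNA-blocked target RNA library […] was mixed with 1 nM active affinity-purified piRISC holding one synthetic guide, with or without 500 nM GTSF1 partner protein, at 33 °C in HEPES–potassium acetate buffer for 0–8 or 0–960 min. Counts were normalised to depth and to weakly complementary targets, three trials were pooled, and k3 was capped at 0.0001 min^-1. A burst-and-steady-state fit gave the pre-steady-state cleavage rate.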
# 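Also: 1 nM active piRISC with 0.1 nM target library at 33 °C single turnover.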
row,Sequence,pre-steady-state target cleavage rate
1,GGAGACCUAACUUUACAACCUACUAGCUCA,0.058 ± 0.022
2,GGUCUGGAUACUUUACAACCUAGUACCUCA,0.22 ± 0.036
3,GGAGUGGAAAGUAUACAACCUACUACCUCA,0.678 ± 0.039
4,GGAGUGGAUACUAUAGAUCCUACUACCUCA,1.06 ± 0.066
5,GGAGACCAUACUAAACAUCCUACUACCUCA,0.68 ± 0.07
6,CCUCUGGAAACUAUACAUCCUACUACCUCA,1.93 ± 0.12
7,GGAGUGGUAUACUAUACAACCUACUACCUCA,1.27 ± 0.051
8,GGAGACCAUACUAUACAACCAACUACCUCA,0.0989 ± 0.011
9,GGAGACGGUACUAUACAACCUACUACCUCA,1.47 ± 0.079
10,GGACUGGAUACUAAACUACCUACUACCUCA,0.996 ± 0.11
11,GGUCUGGAUACUAUACAAGCAACUACCUCA,0.026 ± 0.0043
12,GGAGAGGAUACUAUACUACCUAGUACCUCA,0.0428 ± 0.012
13,GGAGACCAUACUAUACAACCUACUACCUA,1.03 ± 0.066
14,GGAGACCUAACUAUACAACCUAGUUCCUCA,0.0155 ± 0.0059
15,CCUCUGGAUACUAUACAUCCAACUACCUCA,0.115 ± 0.019
16,GGAGAGGAUGACUAUACAACCUACUACCUCA,1.08 ± 0.091
17,GGACUGGAUACUAAACAACCUACAACCUCA,0.345 ± 0.039
18,GGUGUGGAAACUAUACAACCUACUACCUCA,1.65 ± 0.082
19,GGAGACCUUACAAUACAACCUACAACCUCA,0.054 ± 0.011
20,GGAGAGGAUGCUAUACAACCUACUACCUCA,1.42 ± 0.087

row,Sequence,pre-steady-state target cleavage rate
1,GGAGACCUAUGAUAUGUACCUUCUUCCUCA,< 0.0001
2,GGAGACCUAUGUAUACAACCUACUACGAGA,0.00638 ± 0.0053
3,GCUCUGGAUUCUAUACAACCUACUACCACA,0.898 ± 0.063
4,GGAGACCAUACUAUUCAAGCUACUACCUCA,0.656 ± 0.045
5,GCUGACGAUACUAUACAACCUACUACCUCA,1.84 ± 0.1
6,GGAGACCUAUGUAUACAACCUAAUACCUCA,0.00608 ± 0.0023
7,GGACUGGAUACUAUACAAGGUACUACCUCA,0.331 ± 0.036
8,GGAGACCUAUCUAGUACAACCUACUACCUCA,0.0981 ± 0.017
9,GGACUGGAUACUAUACAUCCUACUAGCUCA,0.379 ± 0.045
10,GGAGACGAAUACUAUACAACCUACUACCUCA,1.76 ± 0.097
11,GGAGACCUAACUAUACAACCUAGCUACCUCA,0.0156 ± 0.0054
12,GGUCUGGAUACUAUACAACCAACUACCUGA,0.056 ± 0.0095
13,GGAGACCUAACUUUACAACCUACAACCUCA,0.00933 ± 0.0054
14,GGAGAGGAUACUAUACAACCUACAACCACA,0.0616 ± 0.022
15,CCUCUGGAAAGUAUACAACCUACUACCUCA,0.461 ± 0.027
16,GGAGACCUAUGAUUACAACCUCACUACCUCA,0.00801 ± 0.0022
17,GGUCAGGAUACUAUACUACCUACUACCUCA,1.48 ± 0.1
18,CCACUGGAUACUAUACAACCUACUACCACA,1.88 ± 0.13
19,GGAGACGAUUGAAUACAACCUACUACCUCA,0.00304 ± 0.003
20,CCUCUGCAAACUAUACAACCUACUACCUCA,1.97 ± 0.12
